The densities may have been worked out from excess volumes.
Assay: xn = mol fraction of the nth substance listed
Conditions: 298 K, 101 kPa

CCCC[n+]1ccn(C)c1.F[B-](F)(F)F + O
Conditions	mass density [kg/m3]
x1 = 0.0016	1000.3
x2 = 0.1641	1195.3
x2 = 0.1829	1194.6
x2 = 0.3722	1185.6
x2 = 0.4732	1180.2
x2 = 0.5927	1169.7
x2 = 0.599	1168.4
x2 = 0.601	1168.2
x2 = 0.6984	1156.8
x2 = 0.8398	1125.6
x2 = 0.8432	1124.5
x2 = 0.8448	1124
x2 = 0.8459	1123.6
x2 = 0.8763	1111.1
x2 = 0.8905	1105.1
x2 = 0.8907	1105
x2 = 0.8915	1104.6
x2 = 0.9412	1069.9
x2 = 0.9416	1069.5
x2 = 0.9417	1069.4
x2 = 0.9423	1068.8
x2 = 0.9501	1064.2

CCCC[n+]1ccn(C)c1C.F[B-](F)(F)F + O
Conditions	mass density [kg/m3]
x1 = 0.0003	997.7
x1 = 0.0012	999.4
x1 = 0.0014	999.9
x1 = 0.0071	1010.2
x1 = 0.0184	1027.7
x1 = 0.0186	1028.1
x1 = 0.0188	1028.3
x2 = 0.3683	1178.8
x2 = 0.4407	1173.7
x2 = 0.4546	1172.9
x2 = 0.4666	1172.2
x2 = 0.4894	1170.6
x2 = 0.5017	1170.9
x2 = 0.5714	1165.2
x2 = 0.7021	1150.7
x2 = 0.7796	1137
x2 = 0.7924	1134.4
x2 = 0.8502	1118.6
x2 = 0.8516	1118.1
x2 = 0.8534	1117.5
x2 = 0.8549	1116.9
x2 = 0.8816	1106.9
x2 = 0.8825	1106.5
x2 = 0.8826	1106.5
x2 = 0.8856	1105.2
x2 = 0.9248	1081.5
x2 = 0.9253	1081.2
x2 = 0.9258	1080.9
x2 = 0.9267	1080.3
x2 = 0.9271	1080.1
x2 = 0.9314	1077.8
x2 = 0.9633	1050.4
x2 = 0.9634	1050.3
x2 = 0.9638	1049.9
x2 = 0.964	1049.7
x2 = 0.9641	1049.5
x2 = 0.9711	1041.3
x2 = 0.98	1029.9

Reference: a compilation of properties of binary mixtures (doi:10.1016/j.jct.2007.01.007)
